Test results from the BET-seq Pho4 binding data (Le et al. 2018).
Some of the results follow. These are noisy estimates, calculated here from bound and input reads.

target: T1, Pho4 (S. cerevisiae) (UniProt P07270); test: relative binding free energy (BET-seq); higher = weaker binding; conditions: reference: library average
T1 sequence: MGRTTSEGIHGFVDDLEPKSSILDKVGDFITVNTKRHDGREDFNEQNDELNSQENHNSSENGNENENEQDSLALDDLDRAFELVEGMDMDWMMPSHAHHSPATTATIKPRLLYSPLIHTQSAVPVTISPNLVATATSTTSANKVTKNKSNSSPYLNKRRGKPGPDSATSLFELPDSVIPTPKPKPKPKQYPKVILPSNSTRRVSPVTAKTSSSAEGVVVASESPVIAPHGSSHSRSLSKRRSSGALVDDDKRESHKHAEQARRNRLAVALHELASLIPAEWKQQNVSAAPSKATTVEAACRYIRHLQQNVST

Sequence	relative binding free energy [kcal/mol]
GGTAGCACGTGGAGAA	-0.05
TATTTCACGTGATCAG	0.19
TGCGGCACGTGGGAGC	-0.19
AAGAGCACGTGTGGAA	-0.03
CGGGTCACGTGGAATA	0.16
ATTATCACGTGCTCGT	0.14
TCATTCACGTGGGTTG	0.13
GAAACCACGTGTGGGG	0.06
ACGTGCACGTGGAGGT	-0.03
TGCGTCACGTGAGGTA	0.16
GCTGTCACGTGTTAGT	0.1
GGTAACACGTGTGGCA	0.05
AGGGGCACGTGCGTCG	-0.11
TGGTGCACGTGTAATT	0.13
GGTCACACGTGGCTGG	0.14
GGCATCACGTGGTATT	0.17
TAGGTCACGTGTCATG	0.04
GTTAGCACGTGTCTAG	-0.06
AAGGACACGTGGATAT	0.16
GGGCTCACGTGTGGTA	0.27
AATTGCACGTGTAAGT	0.01
AGTCTCACGTGGTCGG	0.15
TGAGCCACGTGATAGG	0.05

Sequence	relative binding free energy [kcal/mol]
GGATCCACGTGGAGGT	0
TGTTACACGTGATGCG	0.11
TTAATCACGTGGGTGC	0
CTTATCACGTGTGCTG	0.12
GAGATCACGTGAGGGC	0.28
ACATGCACGTGAAGGT	0.2
ATGGGCACGTGCGTCA	-0.21
GTGAGCACGTGTTGTT	-0.01
TAGATCACGTGTATTA	0.02
GTTGTCACGTGCAGGG	0.07
TACTGCACGTGTGCGT	0.07
ATGAACACGTGGGTAG	0.03
GTTGTCACGTGTGTGG	0.28
GTTGACACGTGTTGAT	0
ATCATCACGTGGTTGT	0.11
AGCGGCACGTGCGTGG	-0.23
TGAGGCACGTGTGATG	0.05
GTTTGCACGTGTTGAT	-0.04
GGTAGCACGTGGGCAT	-0.23
GGCGTCACGTGTGGTG	0.2
AATTTCACGTGGGGGT	0.18
TAAGGCACGTGGAGAT	-0.06
TAGGGCACGTGCACGG	-0.22

Sequence	relative binding free energy [kcal/mol]
CGGAGCACGTGAAGGT	0.13
CTTTGCACGTGGTTAT	-0.07
GCAGTCACGTGAGAGT	0.32
GGGGCCACGTGTTGGC	-0.03
AGCTTCACGTGTAGGT	0.26
GTATGCACGTGTTGTC	0.07
GTGCGCACGTGCTGTG	-0.18
AAGGGCACGTGTTGTG	-0.05
TCTATCACGTGGGTTG	0.04
GGTCCCACGTGGAGTG	-0.01
GTGATCACGTGATTCG	0.24
CTTTTCACGTGTGAAT	0.24
TCTAACACGTGAGGGG	0.24
TTGGGCACGTGGGTTA	-0.23
GGAGTCACGTGGGCCT	0.15
AAGCGCACGTGGGCGT	-0.32
GGTGGCACGTGCCGGA	-0.09
AGTGTCACGTGGTGAA	0.06
GGTTCCACGTGTAGTG	0.15
TTGTACACGTGCATGT	0
GTAATCACGTGTCGTT	0.32
TTGGTCACGTGATTAT	0.18
GTGGGCACGTGAGGGG	0.31

Sequence	relative binding free energy [kcal/mol]
GTGTGCACGTGCATGG	-0.04
GGGGGCACGTGGCGGG	-0.14
CTAGTCACGTGACGGG	0.29
CGTTGCACGTGTAGGA	-0.05
AGTTACACGTGGTAAT	0.14
TAGGACACGTGTTTTG	0.05
TGCGTCACGTGATCGT	0.17
TGGTACACGTGTAATG	0.2
AAGGCCACGTGAGGGG	0.17
AAAGTCACGTGGGGGG	0.01
GATGGCACGTGAGGGC	0.22
ATCGGCACGTGTTGAT	-0.09
GGATTCACGTGAGGGG	0.3
ATGCACACGTGGGCTG	-0.06
CTAGGCACGTGGAGTT	-0.16
TTGAGCACGTGGGCTG	-0.24
TTGTACACGTGGGTTC	-0.13
TGGCGCACGTGGTCTT	-0.15
GGTTACACGTGGATAG	0.17
TGTATCACGTGGGCGT	0.03
TCTTACACGTGTTGAT	-0.02
AGGTTCACGTGTGTGA	0.23
GGGAACACGTGTGGTG	0.14

Sequence	relative binding free energy [kcal/mol]
TAGTGCACGTGATAGG	0.06
AAGTACACGTGTAGGT	-0.01
TGGGGCACGTGGACGA	-0.01
AGATTCACGTGGGTAT	0.21
TTTAACACGTGAGTGT	0.07
CGTGGCACGTGCTAAG	-0.02
TTCTGCACGTGTGAGT	0.02
GGTGTCACGTGTAGTT	0.18
GATGTCACGTGTGGCG	0.14
TTAAGCACGTGATGAG	-0.02
TTTACCACGTGTGTAG	-0.05
TGCTTCACGTGCGGTA	0.15
TGGCTCACGTGTGTGT	0.16
GACTACACGTGGGTTT	-0.01
TTGATCACGTGCAATG	0.17
ATATTCACGTGGGGGT	0.12
TATAGCACGTGTTTCG	-0.13
GTCTGCACGTGAATGT	0.34
GTGGCCACGTGGCGCG	-0.18
GTTAGCACGTGGCGAT	-0.18
GTTCTCACGTGAGGTA	0.36
TTTGTCACGTGGCTAT	-0.05
TAAGGCACGTGGCGGG	-0.18
